# Among all 48,000 compounds or so, about 1,200 (2.5%) were called active. About 2% were inconclusive and are not listed.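 Rule for the calls: active = activation of at least 60% and not above a set upper limit (about 1 call in 100 departs from these limits); inconclusive = activation of 40% to 60%, or above that upper limit; inactive = activation under 40%.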 This is one part of the list.
# Molecular target: Probable G-protein coupled receptor 32 (Homo sapiens) (UniProt O75388)
# Assay: qHTS for Agonists of Human Resolvin D1 Receptor DRV1; note: 0% is about no effect
# Conditions: CHO-K1 GPR32 beta-arrestin PathHunter luminescence, 90 min; at 76.9 µM; hits give high values; zero percent set by DMSO-only wells
# Method in brief: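 Step 1: seed CHO-K1 GPR32 beta-arrestin cells, 2,500/well, overnight at 37 °C. Step 2: add compounds, 90 min at 37 °C. Step 3: detection reagent, 1 h ambient, then luminescence.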
# UniProt O75388, sequence (O75388 whole entry, looked up): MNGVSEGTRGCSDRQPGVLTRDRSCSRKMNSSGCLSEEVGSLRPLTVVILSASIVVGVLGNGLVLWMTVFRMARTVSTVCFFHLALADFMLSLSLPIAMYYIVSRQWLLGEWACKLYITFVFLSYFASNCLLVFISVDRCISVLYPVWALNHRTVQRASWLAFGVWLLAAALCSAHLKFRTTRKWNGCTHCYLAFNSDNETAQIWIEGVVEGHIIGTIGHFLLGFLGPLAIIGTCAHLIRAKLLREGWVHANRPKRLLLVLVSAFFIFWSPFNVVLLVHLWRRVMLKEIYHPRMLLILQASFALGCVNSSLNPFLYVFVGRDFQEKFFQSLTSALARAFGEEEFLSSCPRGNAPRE
row,Structure (SMILES),activation
1,O=C(Nc1nnc(C2CC(=O)N(c3ccc(Cl)cc3)C2)s1)c1ccco1 (stereo not drawn),inactive: -14.5%
2,Cc1ccc(SCc2nc(-c3ccc(C(=O)Nc4cc(C)ccc4C)cc3)oc2C)cc1,inactive: -17.6%
3,Cc1nc2c(-c3ccccc3)c(C)nn2c(C)c1CCC(=O)Nc1ccccc1F,active: 60.5%
4,Cc1ccccc1C1=CCN(c2ncc(NC(=O)c3ccc(Cl)cc3)cc2C(=O)O)CC1,inactive: 6.07%
5,Cc1nc2nc(SCC(=O)NCCc3ccc(Cl)cc3)nn2c(C)c1Cc1ccccc1Cl,inactive: -17.6%
6,COC(=O)c1ccccc1NC(=O)c1cc(C)nc2c1c(C)nn2-c1ccc(C)cc1,inactive: 1.79%
7,COc1cccc(OCC(=O)NC2CC(=O)N(c3ccc4c(c3)OCCO4)C2)c1 (stereo not drawn),inactive: -12.6%
8,COc1ccc(C2CC(=O)c3c([nH]c(C(=O)OC4CCCCCC4)c3C)C2)cc1 (stereo not drawn),inactive: 3.32%
9,COc1ccc(OC)c(NC(=O)CSC2=Nc3ccccc3C3=NC(CC(=O)NCc4ccc(F)cc4)C(=O)N23)c1 (stereo not drawn),inactive: -25.6%
10,COc1cc(OC)c(NC(=O)n2ncc3cc(Cl)ccc32)cc1Cl,inactive: -13.8%
11,Cc1ccc2nc(-c3ccc(NC(=O)c4ccccc4S(C)(=O)=O)cc3)sc2c1,inactive: 9.4%
12,Cc1ccc(Cl)cc1NC(=O)NCc1cccn1Cc1ccc(F)cc1,inactive: -16.7%
13,O=C(Nc1ccccc1O)c1cc(S(=O)(=O)N2CCCC2)ccc1Cl,inactive: -4.36%
14,Cc1ccc(CNC(=O)CSc2ncc(S(=O)(=O)c3ccc(C)c(Cl)c3)c(=O)[nH]2)cc1,inactive: 1.67%
15,Cc1ccc(NC(=O)N2CCN(c3nnc(C)c4c(C)n(-c5ccc(Cl)cc5)nc34)CC2)c(C)c1,inactive: 2.59%
16,CC(C(=O)O)c1ccc(C(=O)c2ccccc2)s1 (stereo not drawn),inactive: -12.1%
17,COc1ccc2c(c1)c1c(c(=O)n(-c3ccc(OC)c(OC)c3)c(=O)n1CC(=O)N1CCCC1)n2C,inactive: -2.35%
18,CCOc1ccc(OCC)c(NC(=O)CCc2nc3cccnc3n2Cc2cccs2)c1,inactive: -24.3%
19,CCOC(=O)c1cccc(NC(=O)CC2C(=O)N(c3ccc(C)cc3)C(=O)N2Cc2cccc(OC)c2)c1 (stereo not drawn),inactive: -8.79%
20,COc1cc(Cl)c(C)cc1NC(=O)CSc1nc2c(c(=O)[nH]1)CCCC2,inactive: 25.6%
21,CN(C)c1ccc(CNC(=O)c2cnc3sc(N4CCCCCC4)nn3c2=O)cc1,inactive: -1.37%
22,CCCCNC(=O)CCCn1c(=O)c2ccccc2n(Cc2c(C)cc(C)cc2C)c1=O,inactive: -3.94%
23,COC(=O)N1CCCc2cc(S(=O)(=O)N3CCN(c4ccccc4)CC3)ccc21,inactive: -8.48%

# — PubChem BioAssay AID1346428 (National Center for Advancing Translational Sciences (NCATS), 2018)
